{
  "source": "the supplement of paper PMC8728848",
  "binders": {"B1": {"name": "PA-IL (Pseudomonas aeruginosa), Q05097 (protein)", "chain": "MAWKGEVLANNEAGQVTSIIYNPGDVITIVAAGWASYGPTQKWGPQGDREHPDQGLICHDAFCGALVMKIGNSGTIPVNTGLFRWVAPNNVQGAITLIYNDVPGTYGNNSGSFSVNIGKDQS"}},
  "experiment_in_all_cases": "glycan array binding signal (z-score within array); higher = stronger binding",
  "settings_in_all_cases": "glycan notation: IUPAC condensed, linker removed",
  "key": {"[1]": {"target": "Man(a1-2)Man(a1-2)Man(a1-3)Man", "how_it_was_run": "(§1)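 Glycan array binding is given as a within-array Z-score, which can be read as non-binding when negative. The arrays, 3228 of them, came from the Consortium for Functional Glycomics database and were retained only where the protein sequence was available. Z-scores were averaged across arrays of the same protein sequence at different concentrations or buffers and across linkers.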"}, "[2]": {"target": "Man(a1-2)Man(a1-2)Man(a1-6)[Man(a1-3)]Man", "how_it_was_run": "as §1"}, "[3]": {"target": "Man(a1-2)Man(a1-3)Man", "how_it_was_run": "as §1"}, "[4]": {"target": "Man(a1-2)Man(a1-3)[Man(a1-2)Man(a1-6)]Man", "how_it_was_run": "as §1"}, "[5]": {"target": "Man(a1-2)Man(a1-3)[Man(a1-2)Man(a1-6)]Man(a1-6)[Man(a1-2)Man(a1-2)Man(a1-3)]Man", "how_it_was_run": "as §1"}, "[6]": {"target": "Man(a1-2)Man(a1-3)[Man(a1-2)Man(a1-6)]Man(a1-6)[Man(a1-2)Man(a1-2)Man(a1-3)]Man(b1-4)GlcNAc(b1-4)GlcNAc", "how_it_was_run": "as §1"}, "[7]": {"target": "Man(a1-2)Man(a1-3)[Man(a1-6)]Man(a1-6)[Man(a1-2)Man(a1-3)]Man(b1-4)GlcNAc(b1-4)GlcNAc", "how_it_was_run": "as §1"}, "[8]": {"target": "Man(a1-2)Man(a1-6)[Man(a1-3)]Man(a1-6)[Man(a1-2)Man(a1-2)Man(a1-3)]Man", "how_it_was_run": "as §1"}, "[9]": {"target": "Man(a1-2)Man(a1-6)[Man(a1-3)]Man(a1-6)[Man(a1-2)Man(a1-2)Man(a1-3)]Man(b1-4)GlcNAc(b1-4)GlcNAc", "how_it_was_run": "as §1"}, "[10]": {"target": "Man(a1-3)[Man(a1-6)]Man", "how_it_was_run": "as §1"}, "[11]": {"target": "Man(a1-3)[Man(a1-6)]Man(a1-6)[Man(a1-2)Man(a1-3)]Man(b1-4)GlcNAc(b1-4)GlcNAc", "how_it_was_run": "as §1"}, "[12]": {"target": "Man(a1-3)[Man(a1-6)]Man(a1-6)[Man(a1-3)]Man", "how_it_was_run": "as §1"}, "[13]": {"target": "Man(a1-3)[Man(a1-6)]Man(a1-6)[Man(a1-3)]Man(b1-4)GlcNAc(b1-4)GlcNAc", "how_it_was_run": "as §1"}, "[14]": {"target": "Man(a1-3)[Man(a1-6)]Man(b1-4)GlcNAc(b1-4)GlcNAc", "how_it_was_run": "as §1"}, "[15]": {"target": "Man(a1-3)[Man(a1-6)]Man(b1-4)GlcNAc(b1-4)[Fuc(a1-6)]GlcNAc", "how_it_was_run": "as §1"}, "[16]": {"target": "Man(a1-6)Man", "how_it_was_run": "as §1"}, "[17]": {"target": "Man(b1-4)GlcNAc", "how_it_was_run": "as §1"}, "[18]": {"target": "MurNAc(b1-4)GlcNAc", "how_it_was_run": "as §1"}, "[19]": {"target": "Neu5Ac(a2-3)Gal", "how_it_was_run": "as §1"}, "[20]": {"target": "Neu5Ac(a2-3)Gal(b1-3)GalNAc", "how_it_was_run": "as §1"}, "[21]": {"target": "Neu5Ac(a2-3)Gal(b1-3)GalNAc(b1-3)Gal(a1-4)Gal(b1-4)Glc", "how_it_was_run": "as §1"}, "[22]": {"target": "Neu5Ac(a2-3)Gal(b1-3)GalNAc(b1-4)[Neu5Ac(a2-3)]Gal(b1-4)Glc", "how_it_was_run": "as §1"}, "[23]": {"target": "Neu5Ac(a2-3)Gal(b1-3)GalNAc(b1-4)[Neu5Ac(a2-8)Neu5Ac(a2-3)]Gal(b1-4)Glc", "how_it_was_run": "as §1"}, "[24]": {"target": "Neu5Ac(a2-3)Gal(b1-3)GalNAc6S", "how_it_was_run": "as §1"}, "[25]": {"target": "Neu5Ac(a2-3)Gal(b1-3)GlcNAc", "how_it_was_run": "as §1"}, "[26]": {"target": "Neu5Ac(a2-3)Gal(b1-3)GlcNAc(b1-2)Man", "how_it_was_run": "as §1"}, "[27]": {"target": "Neu5Ac(a2-3)Gal(b1-3)GlcNAc(b1-2)Man(a1-3)[GlcNAc(b1-4)][Neu5Ac(a2-3)Gal(b1-3)GlcNAc(b1-2)Man(a1-6)]Man(b1-4)GlcNAc(b1-4)GlcNAc", "how_it_was_run": "as §1"}, "[28]": {"target": "Neu5Ac(a2-3)Gal(b1-3)GlcNAc(b1-2)Man(a1-3)[Neu5Ac(a2-3)Gal(b1-3)GlcNAc(b1-2)Man(a1-6)]Man(b1-4)GlcNAc(b1-4)GlcNAc", "how_it_was_run": "as §1"}, "[29]": {"target": "Neu5Ac(a2-3)Gal(b1-3)GlcNAc(b1-3)Gal(b1-3)GlcNAc", "how_it_was_run": "as §1"}, "[30]": {"target": "Neu5Ac(a2-3)Gal(b1-3)GlcNAc(b1-3)Gal(b1-4)GlcNAc", "how_it_was_run": "as §1"}, "[31]": {"target": "Neu5Ac(a2-3)Gal(b1-3)GlcNAc(b1-3)GalNAc", "how_it_was_run": "as §1"}, "[32]": {"target": "Neu5Ac(a2-3)Gal(b1-3)GlcNAc(b1-4)Gal(b1-4)Glc", "how_it_was_run": "as §1"}, "[33]": {"target": "Neu5Ac(a2-3)Gal(b1-3)GlcNAc(b1-6)GalNAc", "how_it_was_run": "as §1"}, "[34]": {"target": "Neu5Ac(a2-3)Gal(b1-3)GlcNAc6S", "how_it_was_run": "as §1"}, "[35]": {"target": "Neu5Ac(a2-3)Gal(b1-3)[Fuc(a1-4)]GlcNAc", "how_it_was_run": "as §1"}, "[36]": {"target": "Neu5Ac(a2-3)Gal(b1-3)[Fuc(a1-4)]GlcNAc(b1-3)Gal(b1-3)[Fuc(a1-4)]GlcNAc", "how_it_was_run": "as §1"}, "[37]": {"target": "Neu5Ac(a2-3)Gal(b1-3)[Fuc(a1-4)]GlcNAc(b1-3)Gal(b1-4)[Fuc(a1-3)]GlcNAc", "how_it_was_run": "as §1"}, "[38]": {"target": "Neu5Ac(a2-3)Gal(b1-3)[GlcNAc(b1-6)]GalNAc", "how_it_was_run": "as §1"}, "[39]": {"target": "Neu5Ac(a2-3)Gal(b1-3)[Neu5Ac(a2-3)Gal(b1-4)]GlcNAc", "how_it_was_run": "as §1"}, "[40]": {"target": "Neu5Ac(a2-3)Gal(b1-3)[Neu5Ac(a2-6)]GalNAc", "how_it_was_run": "as §1"}, "[41]": {"target": "Neu5Ac(a2-3)Gal(b1-3)[Neu5Ac(a2-6)]GlcNAc(b1-3)[Fuc(a1-3)[Gal(b1-4)]GlcNAc(b1-6)]Gal(b1-4)Glc", "how_it_was_run": "as §1"}, "[42]": {"target": "Neu5Ac(a2-3)Gal(b1-3)]Neu5Ac(a2-3)Gal(b1-4)]GlcNAc", "how_it_was_run": "as §1"}, "[43]": {"target": "Neu5Ac(a2-3)Gal(b1-4)Glc", "how_it_was_run": "as §1"}, "[44]": {"target": "Neu5Ac(a2-3)Gal(b1-4)GlcNAc", "how_it_was_run": "as §1"}, "[45]": {"target": "Neu5Ac(a2-3)Gal(b1-4)GlcNAc(b1-2)Man", "how_it_was_run": "as §1"}},
  "note": "This is one part of the list.",
  "data": [
    {"binder": "B1", "values": [
      {"measurement": "glycan array binding signal (z-score)", "setting": "[1]", "result": -0.229},
      {"measurement": "glycan array binding signal (z-score)", "setting": "[2]", "result": -0.218},
      {"measurement": "glycan array binding signal (z-score)", "setting": "[3]", "result": -0.226},
      {"measurement": "glycan array binding signal (z-score)", "setting": "[4]", "result": -0.217},
      {"measurement": "glycan array binding signal (z-score)", "setting": "[5]", "result": -0.234},
      {"measurement": "glycan array binding signal (z-score)", "setting": "[6]", "result": -0.191},
      {"measurement": "glycan array binding signal (z-score)", "setting": "[7]", "result": -0.229},
      {"measurement": "glycan array binding signal (z-score)", "setting": "[8]", "result": -0.227},
      {"measurement": "glycan array binding signal (z-score)", "setting": "[9]", "result": -0.244},
      {"measurement": "glycan array binding signal (z-score)", "setting": "[10]", "result": -0.225},
      {"measurement": "glycan array binding signal (z-score)", "setting": "[11]", "result": 0.053},
      {"measurement": "glycan array binding signal (z-score)", "setting": "[12]", "result": -0.227},
      {"measurement": "glycan array binding signal (z-score)", "setting": "[13]", "result": -0.228},
      {"measurement": "glycan array binding signal (z-score)", "setting": "[14]", "result": -0.211},
      {"measurement": "glycan array binding signal (z-score)", "setting": "[15]", "result": -0.23},
      {"measurement": "glycan array binding signal (z-score)", "setting": "[16]", "result": -0.219},
      {"measurement": "glycan array binding signal (z-score)", "setting": "[17]", "result": -0.221},
      {"measurement": "glycan array binding signal (z-score)", "setting": "[18]", "result": -0.238},
      {"measurement": "glycan array binding signal (z-score)", "setting": "[19]", "result": -0.213},
      {"measurement": "glycan array binding signal (z-score)", "setting": "[20]", "result": -0.233},
      {"measurement": "glycan array binding signal (z-score)", "setting": "[21]", "result": -0.229},
      {"measurement": "glycan array binding signal (z-score)", "setting": "[22]", "result": -0.243},
      {"measurement": "glycan array binding signal (z-score)", "setting": "[23]", "result": -0.227},
      {"measurement": "glycan array binding signal (z-score)", "setting": "[24]", "result": -0.231},
      {"measurement": "glycan array binding signal (z-score)", "setting": "[25]", "result": -0.225},
      {"measurement": "glycan array binding signal (z-score)", "setting": "[26]", "result": -0.214},
      {"measurement": "glycan array binding signal (z-score)", "setting": "[27]", "result": -0.239},
      {"measurement": "glycan array binding signal (z-score)", "setting": "[28]", "result": -0.239},
      {"measurement": "glycan array binding signal (z-score)", "setting": "[29]", "result": -0.234},
      {"measurement": "glycan array binding signal (z-score)", "setting": "[30]", "result": -0.228},
      {"measurement": "glycan array binding signal (z-score)", "setting": "[31]", "result": -0.215},
      {"measurement": "glycan array binding signal (z-score)", "setting": "[32]", "result": -0.22},
      {"measurement": "glycan array binding signal (z-score)", "setting": "[33]", "result": -0.238},
      {"measurement": "glycan array binding signal (z-score)", "setting": "[34]", "result": -0.217},
      {"measurement": "glycan array binding signal (z-score)", "setting": "[35]", "result": -0.23},
      {"measurement": "glycan array binding signal (z-score)", "setting": "[36]", "result": -0.216},
      {"measurement": "glycan array binding signal (z-score)", "setting": "[37]", "result": -0.215},
      {"measurement": "glycan array binding signal (z-score)", "setting": "[38]", "result": -0.233},
      {"measurement": "glycan array binding signal (z-score)", "setting": "[39]", "result": -0.218},
      {"measurement": "glycan array binding signal (z-score)", "setting": "[40]", "result": -0.226},
      {"measurement": "glycan array binding signal (z-score)", "setting": "[41]", "result": -0.229},
      {"measurement": "glycan array binding signal (z-score)", "setting": "[42]", "result": -0.237},
      {"measurement": "glycan array binding signal (z-score)", "setting": "[43]", "result": -0.207},
      {"measurement": "glycan array binding signal (z-score)", "setting": "[44]", "result": -0.228},
      {"measurement": "glycan array binding signal (z-score)", "setting": "[45]", "result": -0.19}
    ]}
  ]
}
